Test results taken from article PMC8017232.
No constants are given. Whether binding was seen depends on the method and setting. Binding seen in cells or lysates may run through a third protein. Some entries that bind do so weakly or less than the wild type. For part of these data: Tags and fused reporters may be left off the sequences shown. One block for each binder: values may come before it.

Columns and labels:
Flag-MAVS = target: T1, Flag-MAVS (UniProt Q8VCF0); assay: co-IP; HEK293T cells co-transfected with Myc-TIPE2 and a Flag-tagged protein for 24 h; whole cell lysate immunoprecipitated by the Flag tag (anti-Flag M2 beads in Figure 6E); immunoblot with anti-Flag or anti-Myc
T1 sequence: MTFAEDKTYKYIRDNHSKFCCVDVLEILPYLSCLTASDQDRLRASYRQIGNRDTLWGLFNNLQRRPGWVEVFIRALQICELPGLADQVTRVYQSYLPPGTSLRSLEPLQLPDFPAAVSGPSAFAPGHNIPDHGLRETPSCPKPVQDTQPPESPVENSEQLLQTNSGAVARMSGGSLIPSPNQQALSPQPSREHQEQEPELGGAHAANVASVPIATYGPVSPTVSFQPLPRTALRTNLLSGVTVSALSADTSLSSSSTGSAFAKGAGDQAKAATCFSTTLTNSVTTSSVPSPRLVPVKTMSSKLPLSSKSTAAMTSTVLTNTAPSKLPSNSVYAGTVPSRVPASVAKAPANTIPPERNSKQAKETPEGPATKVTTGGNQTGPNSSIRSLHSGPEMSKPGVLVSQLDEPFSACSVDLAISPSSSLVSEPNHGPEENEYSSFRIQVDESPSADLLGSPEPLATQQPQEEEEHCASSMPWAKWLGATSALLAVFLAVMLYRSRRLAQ

Flag-TBK1 = target: T2, Flag-TBK1 (UniProt Q9WUN2); assay: as above
T2 sequence: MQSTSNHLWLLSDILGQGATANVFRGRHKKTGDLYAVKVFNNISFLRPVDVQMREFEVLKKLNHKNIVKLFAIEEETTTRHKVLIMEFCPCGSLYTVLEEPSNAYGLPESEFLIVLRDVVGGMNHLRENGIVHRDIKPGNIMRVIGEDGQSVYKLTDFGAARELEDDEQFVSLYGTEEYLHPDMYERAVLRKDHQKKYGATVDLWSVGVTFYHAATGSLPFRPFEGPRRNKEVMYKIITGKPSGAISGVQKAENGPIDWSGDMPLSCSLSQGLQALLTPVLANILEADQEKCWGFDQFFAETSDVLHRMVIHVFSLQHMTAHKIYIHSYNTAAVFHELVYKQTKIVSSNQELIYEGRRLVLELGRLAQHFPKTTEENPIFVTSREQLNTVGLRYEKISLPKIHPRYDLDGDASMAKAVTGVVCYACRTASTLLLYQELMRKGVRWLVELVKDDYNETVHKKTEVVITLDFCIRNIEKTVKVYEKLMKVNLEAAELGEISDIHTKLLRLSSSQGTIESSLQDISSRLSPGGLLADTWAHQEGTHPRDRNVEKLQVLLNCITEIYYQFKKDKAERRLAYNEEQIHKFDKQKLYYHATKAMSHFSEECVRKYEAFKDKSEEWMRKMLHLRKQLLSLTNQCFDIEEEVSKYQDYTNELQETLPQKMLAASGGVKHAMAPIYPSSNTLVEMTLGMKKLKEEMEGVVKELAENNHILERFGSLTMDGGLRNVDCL

[1] = target: T3, Flag-tagged RIG-I 2CARDs (1–233) (UniProt Q6Q899); assay: as above
T3 sequence: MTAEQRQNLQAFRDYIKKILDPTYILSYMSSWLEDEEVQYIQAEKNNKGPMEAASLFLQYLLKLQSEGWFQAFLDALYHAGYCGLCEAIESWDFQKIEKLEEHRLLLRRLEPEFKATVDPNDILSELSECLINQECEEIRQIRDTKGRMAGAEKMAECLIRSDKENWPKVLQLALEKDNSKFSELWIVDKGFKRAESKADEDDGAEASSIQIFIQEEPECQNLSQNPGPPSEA

[2] = target: T4, Flag-tagged RIG-I CTD (735–926) (UniProt Q6Q899); assay: as above
T4 sequence: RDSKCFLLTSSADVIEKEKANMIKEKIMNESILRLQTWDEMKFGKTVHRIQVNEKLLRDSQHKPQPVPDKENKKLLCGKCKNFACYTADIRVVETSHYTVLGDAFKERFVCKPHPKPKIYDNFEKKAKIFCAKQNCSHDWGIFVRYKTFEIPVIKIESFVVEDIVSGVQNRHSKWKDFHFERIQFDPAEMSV

[3] = target: T5, Flag-tagged full-length RIG-I (1–926) (UniProt Q6Q899); assay: as above
T5 sequence: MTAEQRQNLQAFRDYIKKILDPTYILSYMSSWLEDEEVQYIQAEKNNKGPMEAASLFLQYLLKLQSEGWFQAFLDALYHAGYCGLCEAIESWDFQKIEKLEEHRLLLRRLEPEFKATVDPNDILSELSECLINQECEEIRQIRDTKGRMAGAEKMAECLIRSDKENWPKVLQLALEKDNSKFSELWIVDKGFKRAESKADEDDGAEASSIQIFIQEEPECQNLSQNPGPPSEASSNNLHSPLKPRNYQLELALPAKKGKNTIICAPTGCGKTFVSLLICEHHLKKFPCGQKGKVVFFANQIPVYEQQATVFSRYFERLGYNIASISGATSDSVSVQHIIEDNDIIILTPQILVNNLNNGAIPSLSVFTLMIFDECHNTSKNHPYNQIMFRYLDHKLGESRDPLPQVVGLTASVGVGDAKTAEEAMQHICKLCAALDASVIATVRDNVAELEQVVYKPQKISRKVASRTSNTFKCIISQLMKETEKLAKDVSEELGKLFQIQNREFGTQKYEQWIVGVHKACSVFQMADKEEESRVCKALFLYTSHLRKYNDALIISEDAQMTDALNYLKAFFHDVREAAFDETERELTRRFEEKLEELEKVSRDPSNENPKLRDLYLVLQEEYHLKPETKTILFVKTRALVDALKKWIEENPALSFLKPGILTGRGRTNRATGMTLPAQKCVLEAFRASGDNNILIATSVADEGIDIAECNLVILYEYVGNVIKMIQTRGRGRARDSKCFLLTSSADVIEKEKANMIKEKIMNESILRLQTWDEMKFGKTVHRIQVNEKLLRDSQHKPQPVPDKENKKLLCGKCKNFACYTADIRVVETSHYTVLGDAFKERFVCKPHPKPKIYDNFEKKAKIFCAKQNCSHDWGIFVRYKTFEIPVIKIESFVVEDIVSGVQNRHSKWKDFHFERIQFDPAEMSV

[4] = target: T6, RIG-I (endogenous) (mouse (endogenous in RAW264.7 and BMDMs)) (UniProt Q6Q899); assay: co-IP
T6 sequence: T5 sequence

- binding (Flag-MAVS): no binding
- binding (Flag-TBK1): no binding
- binding [1]: binds
- binding [2]: binds
- binding [3]: binds
B1: Myc-TIPE2 (tumor necrosis factor-α-induced protein 8-like 2) (protein, UniProt Q9D8Y7 1-184)
chain: MESFSSKSLALQAEKKLLSKMAGRSVAHLFIDETSSEVLDELYRVSKEYTHSRPKAQRVIKDLIKVAVKVAVLHRSGCFGPGELALATRFRQKLRQGAMTALSFGEVDFTFEAAVLAGLLVECRDILLELVEHHLTPKSHDRIRHVFDHYSDPDLLAALYGPDFTQHLGKICDGLRKLLDEGKL

- binding [4]: binds
B2: TIPE2 (endogenous) (protein, UniProt Q9D8Y7 1-184)
chain: B1 chain
